Measurements taken from PMC6212790.
This is one part of the list. At the low end of the ranking, values are background and their order means little.

The sequences below were run against T1, GST-Rok (full length) (UniProt O34857) (assay: protein binding microarray). Conditions: Rok is a gene silencer of Bacillus subtilis; high values mean tight binding; most listed sequences are background and not binding sites; double strand, one strand shown.
T1 sequence: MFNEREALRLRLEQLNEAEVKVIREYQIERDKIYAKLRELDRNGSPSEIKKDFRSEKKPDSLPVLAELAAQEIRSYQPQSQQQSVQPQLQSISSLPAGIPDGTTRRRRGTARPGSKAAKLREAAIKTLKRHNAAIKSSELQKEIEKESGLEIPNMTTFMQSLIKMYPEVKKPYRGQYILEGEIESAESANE
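Further: rank score from −0.5 (least bound) to 0.5 (best bound).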

| Sequence | binding signal [E-score] |
| --- | --- |
| CGAAATCA | 0.144 |
| CCCAACAA | -0.0669 |
| AACTGCCG | -0.073 |
| CCGGGTTA | -0.0958 |
| CGGGCACC | -0.352 |
| ACATTTAA | 0.0958 |
| CAGAATAA | 0.0816 |
| AGCTGACA | -0.0391 |
| CACGATGG | -0.0893 |
| GTTCTGAA | 0.066 |
| AGTGCCAC | -0.174 |
| CCCGCAAC | -0.00234 |
| CGTCGGAG | -0.255 |
| ATAGGCTA | 0.139 |
| TCACAGGA | -0.0027 |
| CCGCTGCA | -0.112 |
| GTCTGAAC | -0.103 |
| CACGTATG | 0.0605 |
| CTTATTTA | 0.148 |
| AGATGCCA | -0.0828 |
| CTCGCTGC | -0.0165 |
| AGTTAATA | 0.281 |
| TAACCGAA | 0.12 |
| TAAGCAAA | 0.208 |
| AGGACTTA | -0.0924 |

| Sequence | binding signal [E-score] |
| --- | --- |
| AATCGACT | 0.0535 |
| GGATCGAA | -0.0686 |
| ACGTCATG | -0.0357 |
| ACAGAATC | 0.113 |
| AAGAACTG | -0.0578 |
| ACACCTGT | -0.0296 |
| GCGTGGTA | 0.164 |
| AAAGAGGA | -0.107 |
| GCTCGTAC | -0.0724 |
| CTAGCGGC | 0.00561 |
| AATATGTA | 0.416 |
| CATCACGA | -0.00103 |
| AAATTCGA | 0.144 |
| CCATAGAG | -0.179 |
| TCAGCAGA | -0.0651 |
| AATCCTCA | 0.0559 |
| CAACCCCA | -0.306 |
| AGTGGTTG | 0.00567 |
| CCTTTCCC | -0.329 |
| GCTCTAAA | -0.00769 |
| ATTTGAGA | 0.101 |
| AAATATGC | 0.223 |
| GCCTAAGA | -0.0322 |
| GAGTACCC | -0.131 |
| AATCTACC | 0.437 |

| Sequence | binding signal [E-score] |
| --- | --- |
| AAATCATG | -0.143 |
| CAGTAACC | 0.0661 |
| ACTTACCT | 0.0398 |
| GTGTTCAA | 0.0117 |
| ATAGATAT | 0.374 |
| ACCCGCGC | -0.214 |
| ACAAAGCC | -0.0156 |
| CAATTGGA | 0.112 |
| GGAACGAC | -0.0783 |
| ATGCTCTA | -0.0712 |
| GCGGCCGC | -0.279 |
| GTTGGCTA | -0.0143 |
| CGAGGCCC | -0.259 |
| CGTTAAAG | -0.00944 |
| GGCTAATA | -0.076 |
| CGTCGTGC | -0.32 |
| CACTATGG | -0.0716 |
| ACCTAGAG | -0.147 |
| CCAGACTA | 0.0332 |
| CCAGCTTA | -0.207 |
| AATGTCTA | 0.15 |
| ATGAGGAG | -0.258 |
| ACAACGAC | 0.0795 |
| GACTAACC | 0.0811 |
| CGACATGC | 0.00681 |

| Sequence | binding signal [E-score] |
| --- | --- |
| CTACCCGC | -0.112 |
| AGAAGGCC | -0.414 |
| CGACGGCC | -0.217 |
| ACGAGACG | -0.0773 |
| AGCCTCTG | -0.166 |
| ACGCATAG | -0.081 |
| AGATGGGC | -0.234 |
| AGCAGCTA | 0.0936 |
| CGGTGTTA | 0.0408 |
| ACTGGGTC | -0.107 |
| AACCCGGA | -0.114 |
| ACGACTAA | 0.0127 |
| GCGCCGTA | -0.132 |
| CAGCTACC | 0.0183 |
| AAATTACT | 0.386 |
| CGTATCCA | -0.032 |
| CAGCACCG | -0.114 |
| TACGGCGA | -0.222 |
| GCGTCGCC | -0.217 |
| ACAACGCC | -0.00977 |
| AAAGGCGG | -0.244 |
| AGAGCATC | -0.142 |
| GCAGTATA | 0.275 |
| CAGACAGG | -0.272 |
| CATGGAGC | -0.301 |

| Sequence | binding signal [E-score] |
| --- | --- |
| AGCCATGG | -0.213 |
| CTCACCCC | -0.292 |
| AGCTGTCC | -0.311 |
| GCCTCCAC | -0.187 |
| GAGAAACC | 0.0725 |
| ACGGAGAA | 0.085 |
| ATTTCTTC | 0.219 |
| CCCCTCAC | -0.369 |
| AAACATGT | 0.0907 |
| ACGAGTCT | -0.0337 |
| CAGAACGA | -0.151 |
| GTGCCGCA | -0.192 |
| AGCAAGCA | -0.0589 |
| ATTACTGC | 0.138 |
| AAATGCTA | 0.187 |
| AAAAGCGA | 0.0193 |
| TCGAAAGA | -0.0247 |
| ACCCAGAC | -0.111 |
| CTGAGCCA | -0.121 |
| CCTCTGGA | -0.156 |
| CATCGGGC | -0.215 |
| CGGAGTTC | -0.108 |
| AGAGTCTA | -0.0659 |
| ACCTTGAC | 0.0189 |
| ACCGGGTG | -0.11 |

| Sequence | binding signal [E-score] |
| --- | --- |
| GAACCTAC | 0.15 |
| AAGCTTCC | -0.103 |
| AGCAGGCA | -0.201 |
| AGGACTGG | -0.0487 |
| AGCTACAC | 0.191 |
| ACTCAACA | 0.0726 |
| ACCAATAT | 0.298 |
| CCTACTAC | 0.258 |
| ATTATGCA | 0.229 |
| AGAACGCG | -0.0621 |
| CAGCTGAC | -0.178 |
| TATTCGGA | 0.00781 |
| GCCTGGTA | -0.302 |
| GCAAGATA | -0.127 |
| TCTGAAAA | 0.0472 |
| GCCGGCGC | -0.351 |
| CACAGTGA | 0.137 |
| AGATCTAC | 0.332 |
| ACTTGGTG | -0.0883 |
| CTCGGTCA | -0.0565 |
| GGGCCCCC | -0.485 |
| TACCCGCA | -0.155 |
| AGGGCGCA | -0.239 |
| ACCGTTAC | 0.111 |
| AAACGTCC | -0.288 |

| Sequence | binding signal [E-score] |
| --- | --- |
| ATGGCGGA | -0.276 |
| AATGGTGT | 0.101 |
| CACGGTAG | 0.264 |
| ATCCCACA | -0.042 |
| ATGAGTCA | 0.143 |
| ACGGTCCT | -0.0816 |
| AGCACAAT | 0.0485 |
| ACAGAGGG | -0.158 |
| GAACCCCC | -0.433 |
| ACTCGGCG | -0.067 |
| GTCGCCCA | -0.31 |
| CAGTGTCC | -0.00743 |
| ATAGGTTG | 0.154 |
| TCGGTAAA | 0.136 |
| CAACCTAC | 0.218 |
| CCACGGTA | 0.0242 |
| GCTGCGGA | -0.0422 |
| AGGACGCG | -0.171 |
| TACTTACA | 0.331 |
| AGTTTGAT | 0.11 |
| CAGACCCG | -0.323 |
| TCGGACGA | -0.114 |
| GATGGCCA | -0.13 |
| AGGGACTG | -0.164 |
| AGCGACCG | -0.317 |

| Sequence | binding signal [E-score] |
| --- | --- |
| CTGGAGAA | 0.21 |
| CAGCGTCG | -0.259 |
| TAGTGGGA | 0.0116 |
| CACGGGCC | -0.315 |
| AGTCTTCA | 0.0416 |
| CCGGGTAC | -0.166 |
| AGGTAGTA | 0.364 |
| CGGGAAAA | -0.0788 |
| CATATCAA | 0.112 |
| GTACAGAC | -0.024 |
| CTGACGCA | -0.0773 |
| GTGAGACA | -0.187 |
| GGCTTAGA | -0.287 |
| TCCAGGAA | -0.054 |
| GCTATTTA | 0.13 |
| ACTAGGGC | -0.0238 |
| GACGGGCC | -0.295 |
| AACAGTAG | 0.354 |
| CCAAGCGC | -0.12 |
| AATCACTA | -0.0124 |
| ATCTCACC | 0.0614 |
| ATCGCTAG | 0.07 |
| ATTTGAAA | -0.00558 |
| GGAATCGA | 0.108 |
| AGGCCTTG | -0.351 |

| Sequence | binding signal [E-score] |
| --- | --- |
| CATCCAAA | -0.102 |
| GTACTACA | 0.314 |
| CCGACCGC | -0.315 |
| ATTAACTC | 0.092 |
| AGCCAAGC | -0.0321 |
| AAACATTA | 0.165 |
| CTACCCCA | 0.0549 |
| GAATCCAA | 0.0152 |
| CTTTTTCC | -0.17 |
| CCCAGGCG | -0.424 |
| ATAGGGAT | 0.0682 |
| CAGCCCGA | -0.278 |
| CGGTACTC | 0.0568 |
| TTAGTGAA | 0.111 |
| CAAGCGCG | -0.11 |
| GCGACTTA | 0.0295 |
| ATTTCACG | 0.0446 |
| GCCCTACA | -0.214 |
| AGGTCTTG | -0.0572 |
